Measured values published in the supplement of paper PMC7580552.
Where a name gives a salt, the structure may show the parent alone. The list shows a part of the results. Repeats are few or missing, and single values can be far off.

tested on: Escherichia coli W3110; assay: planktonic growth (OD600) relative to untreated control; higher = more growth; conditions: 10 µM; 20-24 h; 30 °C; TB
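Further: stationary (unshaken) cultures in 96-well plates, started at OD600 0.05 from mid-exponential cells, with compounds supplied from DMSO stocks.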

SMILES | planktonic growth [%]
CC[N+](CC)(CC)CCOc1cccc(OCC[N+](CC)(CC)CC)c1OCC[N+](CC)(CC)CC [Gallamine triethiodide] | 102
C#C[C@]1(O)CC[C@H]2[C@@H]3CCC4=C(CCC(=O)C4)[C@H]3CC[C@@]21C [Norethynodrel] | 95
CCc1oc2ccccc2c1C(=O)c1cc(Br)c(O)c(Br)c1 [Benzbromarone] | 112
CC/C(=C(\c1ccccc1)c1ccc(OCCN(C)C)cc1)c1ccccc1 [Tamoxifen citrate] | 91
CN[C@@H]1[C@H](O[C@H]2[C@H](O[C@H]3[C@H](O)[C@@H](O)[C@H](NC(=N)N)[C@@H](O)[C@@H]3NC(=N)N)O[C@@H](C)[C@]2(O)CO)O[C@@H](CO)[C@H](O)[C@H]1O [Dihydrostreptomycin sulfate] | 52
NCc1ccc(S(N)(=O)=O)cc1 [Mafenide hydrochloride] | 105
NCC[C@H](O)C(=O)N[C@@H]1C[C@H](N)[C@@H](O[C@H]2O[C@H](CN)[C@@H](O)[C@H](O)[C@H]2O)[C@H](O)[C@H]1O[C@H]1O[C@H](CO)[C@@H](O)[C@H](N)[C@H]1O [Amikacin hydrate] | 23
O=C1c2cccc3c2[C@H](CCC3)CN1[C@@H]1CN2CCC1CC2 [Palonosetron hydrochloride] | 96
CC(C)CN(C[C@@H](O)[C@H](Cc1ccccc1)NC(=O)O[C@H]1CO[C@H]2OCC[C@H]21)S(=O)(=O)c1ccc(N)cc1 [Darunavir] | 97
Clc1ccc(Nc2nnc(Cc3ccncc3)c3ccccc23)cc1 [Vatalanib] | 106
CN1CCC(OC(c2ccccc2)c2ccccc2)CC1 [Diphenylpyraline hydrochloride] | 95
O=C(Oc1cccc2cccnc12)c1ccccc1 [Benzoxiquine] | 107
C[C@H]1COc2c(N3CCN(C)CC3)c(F)cc3c(=O)c(C(=O)O)cn1c23 [Levofloxacin] | 19
CN(C)CCCN1c2ccccc2CCc2ccccc21 [Imipramine hydrochloride] | 106
NC(CO)C(=O)NNCc1ccc(O)c(O)c1O (stereo unspecified) [Benserazide hydrochloride] | 91
NCCC[C@H](N)CC(=O)N[C@H]1CNC(=O)[C@H]([C@H]2C[C@H](O)NC(N)=N2)NC(=O)/C(=C/NC(N)=O)NC(=O)[C@H](CO)NC(=O)[C@H](CO)NC1=O [Viomycin sulfate] | 84
O=c1[nH]cnc2c1ncn2[C@H]1CC[C@@H](CO)O1 [Didanosine] | 110
CN(C/C=C/C#CC(C)(C)C)Cc1cccc2ccccc12 [Terbinafine] | 101
Nc1nc(O)c2ncn(CCC(CO)CO)c2n1 [Penciclovir] | 107
Fc1ccc([C@@H]2CCNC[C@H]2COc2ccc3c(c2)OCO3)cc1 [Paroxetine Hydrochloride] | 100
CC1COc2c(N3CCN(C)CC3)c(F)cc3c(=O)c(C(=O)O)cn1c23 (stereo unspecified) [Ofloxacin] | 22
O=C(O)CCCC[C@@H]1SC[C@@H]2NC(=O)N[C@@H]21 [Biotin] | 97
COCC(=O)Nc1c(I)c(C(=O)NCC(O)CO)c(I)c(C(=O)N(C)CC(O)CO)c1I (stereo unspecified) [Iopromide] | 98
COC(=O)C1=C(C)NC(C)=C(C(=O)OC(C)C)C1c1cccc2nonc12 (stereo unspecified) [Isradipine] | 93

SMILES | planktonic growth [%]
C[C@H](CCC(=O)O)[C@H]1CC[C@H]2[C@@H]3CC[C@@H]4C[C@H](O)CC[C@]4(C)[C@H]3CC[C@]12C [Lithocholic acid] | 93
CC(=O)SCC(Cc1ccccc1)C(=O)NCC(=O)OCc1ccccc1 (stereo unspecified) [Racecadotril] | 101
Cn1cnc([N+](=O)[O-])c1Sc1ncnc2[nH]cnc12 [Azathioprine] | 78
CC(C)C(=O)Nc1ccc([N+](=O)[O-])c(C(F)(F)F)c1 [Flutamide] | 95
COc1nc(N)nc2c1ncn2[C@@H]1O[C@H](CO)[C@@H](O)[C@@H]1O [Nelarabine] | 106
COc1ccccc1N1CCN(CCCNc2cc(=O)n(C)c(=O)n2C)CC1 [Urapidil hydrochloride] | 92
CCN(CC)Cc1cc(Nc2ccnc3cc(Cl)ccc23)ccc1O [Amodiaquin dihydrochloride dihydrate] | 100
CCC(=O)OCC(=O)[C@@]1(OC(=O)CC)[C@@H](C)C[C@H]2[C@@H]3CCC4=CC(=O)C=C[C@]4(C)[C@@]3(Cl)[C@@H](O)C[C@@]21C [Beclomethasone dipropionate] | 95
O=C(O)CN(CCN(CC(=O)O)CC(=O)O)CCN(CC(=O)O)CC(=O)O [Pentetic acid] | 96
C#CCN(C)CCCOc1ccc(Cl)cc1Cl [Clorgyline hydrochloride] | 95
CC(C)NCC(O)c1cc(O)cc(O)c1 (stereo unspecified) [Metaproterenol sulfate, orciprenaline sulfate] | 98
Cn1c(=O)c2c(ncn2CCO)n(C)c1=O [Etofylline] | 87
CNCCCN1c2ccccc2CCc2ccccc21 [Desipramine hydrochloride] | 98
O=C1OC(CN2CCOCC2)CN1/N=C/c1ccc([N+](=O)[O-])o1 (stereo unspecified) [Furaltadone hydrochloride] | 94
O=C(O)CCNC(=O)c1ccc(/N=N/c2ccc(O)c(C(=O)O)c2)cc1 [Balsalazide Sodium] | 115
Cc1cccc(Nc2ccccc2C(=O)O)c1C [Mefenamic acid] | 92
CCC(C)n1ncn(-c2ccc(N3CCN(c4ccc(OCC5COC(Cn6cncn6)(c6ccc(Cl)cc6Cl)O5)cc4)CC3)cc2)c1=O (stereo unspecified) [Itraconazole] | 114
C[n+]1ccccc1/C=N/O [Pralidoxime chloride] | 100
CC1(C)S[C@@H]2[C@H](NC(=O)Cc3ccccc3)C(=O)N2[C@H]1C(=O)O [Benzylpenicillin sodium] | 90
CC1(C)S[C@@H]2[C@H](NC(=O)Cc3ccccc3)C(=O)N2[C@H]1C(=O)O [Benzathine benzylpenicillin] | 85
CCCCc1nc(Cl)c(CO)n1Cc1ccc(-c2ccccc2-c2nnn[nH]2)cc1 [Losartan] | 91
CCN(CC)CCNC(=O)COc1ccc(OC)cc1 [Mefexamide hydrochloride] | 88
Cc1nc2n(c(=O)c1CCN1CCC(c3noc4cc(F)ccc34)CC1)CCCC2O (stereo unspecified) [Paliperidone] | 93
Clc1ccc(C(Cn2ccnc2)OCc2csc3c(Cl)cccc23)c(Cl)c1 (stereo unspecified) [Sertaconazole nitrate] | 90

SMILES | planktonic growth [%]
CC(=O)OCC1=C(C(=O)O)N2C(=O)[C@@H](NC(=O)Cc3cccs3)[C@H]2SC1 [Cephalothin sodium salt] | 56
O=C1CCC(N2C(=O)c3ccccc3C2=O)C(=O)N1 (stereo unspecified) [Thalidomide] | 95
O=C1NCCN1CCN1CCC(c2cn(-c3ccc(F)cc3)c3ccc(Cl)cc23)CC1 [Sertindole] | 115
CC(CN(C)C)C(C)(O)Cc1ccc(Cl)cc1 (stereo unspecified) [Clobutinol hydrochloride] | 103
C[C@]1(Cn2ccnn2)[C@H](C(=O)O)N2C(=O)C[C@H]2S1(=O)=O [Tazobactam] | 100
CC[C@@H](CO)NCCN[C@@H](CC)CO [Ethambutol dihydrochloride] | 94
CC(=O)OCC(=O)[C@@]1(OC(C)=O)[C@@H](C)C[C@H]2[C@@H]3C[C@H](F)C4=CC(=O)C=C[C@]4(C)[C@@]3(F)[C@@H](O)C[C@@]21C [Diflorasone Diacetate] | 95
CCCOc1ccc(C(=O)OCCN(CC)CC)cc1N [Proparacaine hydrochloride] | 99
N=C(N)NCCN1CCCCCCC1 [Guanethidine sulfate] | 101
CC(CN(C)C)CN1c2ccccc2Sc2ccccc21 (stereo unspecified) [Trimeprazine tartrate] | 104
CC1(C)[C@@H](OC(=O)CCC(=O)O)CC[C@]2(C)[C@H]3C(=O)C=C4[C@@H]5C[C@@](C)(C(=O)O)CC[C@]5(C)CC[C@@]4(C)[C@]3(C)CC[C@@H]12 [Carbenoxolone disodium salt] | 95
C=CCOC(Cn1ccnc1)c1ccc(Cl)cc1Cl (stereo unspecified) [Enilconazole] | 109
CN(C)CC/C=C1/c2ccccc2COc2ccc(CC(=O)O)cc21 [Olopatadine hydrochloride] | 98
c1ccc(CN(CC2=NCCN2)c2ccccc2)cc1 [Antazoline hydrochloride] | 91
CC(=O)N(CC(O)CN(C(C)=O)c1c(I)c(C(=O)NCC(O)CO)c(I)c(C(=O)NCC(O)CO)c1I)c1c(I)c(C(=O)NCC(O)CO)c(I)c(C(=O)NCC(O)CO)c1I (stereo unspecified) [Iodixanol] | 82
CC(C(=O)O)c1ccc(C(=O)c2ccccc2)s1 (stereo unspecified) [Tiaprofenic acid] | 91
C=CCSCC1Nc2cc(Cl)c(S(N)(=O)=O)cc2S(=O)(=O)N1 (stereo unspecified) [Althiazide] | 111
CC(C)(O)c1ccccc1CC[C@@H](SCC1(CC(=O)O)CC1)c1cccc(/C=C/c2ccc3ccc(Cl)cc3n2)c1 [Montelukast] | 100
CN1Cc2c(N)cccc2C(c2ccccc2)C1 (stereo unspecified) [Nomifensine maleate] | 94
c1ccc(CNc2ncnc3nc[nH]c23)cc1 [Aminopurine, 6-benzyl] | 92
O=C(c1ccccc1)c1ccc2n1CCC2C(=O)O (stereo unspecified) [Ketorolac tromethamine] | 108
CCOC(=O)[C@@](C)(N)Cc1ccc(O)c(O)c1 [Methyldopate hydrochloride] | 99
COc1c(N2CCNC(C)C2)c(F)cc2c(=O)c(C(=O)O)cn(C3CC3)c12 (stereo unspecified) [Gatifloxacin] | 24
